± gives the standard error. For some assays here: Variants at the floor of the assay are shown more often than the library holds them.
B1: glmS ribozyme (parent)
chain: AUAAAAGCGCCAGAACUACAGAAAUGUAGUUGACGAGGAGGAGGUUUAUCGAAUUUUCGGCGGAUGCCUCCAAA

Variants of: B1
Test: self-cleavage kobs at 2500 uM GlcN6P; higher = faster cleavage; RNA array
Settings: with glucosamine-6-phosphate
Summary of the method: (§1)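 Weighted Michaelis–Menten fits across concentrations supplied kcat and KM, based on kobs from one- or two-exponential decay fits to normalised per-tile medians. The data came from barcoded ribozyme variants transcribed in situ by E. coli RNA polymerase on sequenced MiSeq chips and tracked at 37 °C by a hybridised Cy3 probe. Glucosamine-6-phosphate (40 μM to 10 mM) in HEPES/KCl/Mg(OAc)2 buffer was flowed in.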

A33C A39G U45A A52G and A33C A42G U49A cannot be ordered by “self-cleavage kobs at 2500 uM GlcN6P” value: under 1e-05 s⁻¹ for the first, under 1e-05 s⁻¹ for the second.

Going from A33C A42G U57G to A33C A53G U55G, the “self-cleavage kobs at 2500 uM GlcN6P” value rises from under 1e-05 s⁻¹ to 0.000103 ± 2.8e-05 s⁻¹.

A33C G35U A53G U54C and A33C G40A A52U C61G cannot be ordered by “self-cleavage kobs at 2500 uM GlcN6P” value: under 1e-05 s⁻¹ for the first, under 1e-05 s⁻¹ for the second.

A33C G41A A52U C68U and A33C G41U A42C A64G C68U cannot be ordered by “self-cleavage kobs at 2500 uM GlcN6P” value: under 1e-05 s⁻¹ for the first, under 1e-05 s⁻¹ for the second.

A33C G43U C71U and A33C U55C U56A G59A A64U C71U cannot be ordered by “self-cleavage kobs at 2500 uM GlcN6P” value: under 1e-05 s⁻¹ for the first, under 1e-05 s⁻¹ for the second.

A33C U56C C71A and A33C U56C G63U cannot be ordered by “self-cleavage kobs at 2500 uM GlcN6P” value: under 1e-05 s⁻¹ for the first, under 1e-05 s⁻¹ for the second.

A33G A36U U65G and A33G A53G A64U C71U cannot be ordered by “self-cleavage kobs at 2500 uM GlcN6P” value: under 1e-05 s⁻¹ for the first, under 1e-05 s⁻¹ for the second.

A33G C50U U54A and A33G G35A G43C G60A C71G cannot be ordered by “self-cleavage kobs at 2500 uM GlcN6P” value: under 1e-05 s⁻¹ for the first, under 1e-05 s⁻¹ for the second.

A33G G35C G37A and A33G G44A U47A cannot be ordered by “self-cleavage kobs at 2500 uM GlcN6P” value: under 1e-05 s⁻¹ for the first, under 1e-05 s⁻¹ for the second.

A33G G59C C68U and A33G G66C cannot be ordered by “self-cleavage kobs at 2500 uM GlcN6P” value: under 1e-05 s⁻¹ for the first, under 1e-05 s⁻¹ for the second.

First: A33U A39U C58A
Second: A33U C34A G38A C50A C70G
The “self-cleavage kobs at 2500 uM GlcN6P” value of the first is lower: under 1e-05 s⁻¹ for the first, 0.00153 ± 0.0004 s⁻¹ for the second.

A33U G35C A42U C50U C68A and A33U G35U G51C A64U cannot be ordered by “self-cleavage kobs at 2500 uM GlcN6P” value: under 1e-05 s⁻¹ for the first, under 1e-05 s⁻¹ for the second.

A33U G37A U55A C61U and A33U G41U G60U cannot be ordered by “self-cleavage kobs at 2500 uM GlcN6P” value: under 1e-05 s⁻¹ for the first, under 1e-05 s⁻¹ for the second.

A33U G51C A53C and A33U U47A A52U cannot be ordered by “self-cleavage kobs at 2500 uM GlcN6P” value: under 1e-05 s⁻¹ for the first, under 1e-05 s⁻¹ for the second.

A33U U49C G51C A52C C67G and C34A A36C U47A G62C C68G cannot be ordered by “self-cleavage kobs at 2500 uM GlcN6P” value: under 1e-05 s⁻¹ for the first, under 1e-05 s⁻¹ for the second.

C34A A52C C70U and C34A C58G C67U cannot be ordered by “self-cleavage kobs at 2500 uM GlcN6P” value: under 1e-05 s⁻¹ for the first, under 1e-05 s⁻¹ for the second.

C34A G38U G40A G44C U55C C70G and C34A G66A cannot be ordered by “self-cleavage kobs at 2500 uM GlcN6P” value: under 1e-05 s⁻¹ for the first, under 1e-05 s⁻¹ for the second.

C34A U49G U55A and C34A U57C G60C cannot be ordered by “self-cleavage kobs at 2500 uM GlcN6P” value: under 1e-05 s⁻¹ for the first, under 1e-05 s⁻¹ for the second.

C34A U69G and C34G A36C A42C cannot be ordered by “self-cleavage kobs at 2500 uM GlcN6P” value: under 1e-05 s⁻¹ for the first, under 1e-05 s⁻¹ for the second.

C34G A52G A64U and C34G A53U G59A C70U cannot be ordered by “self-cleavage kobs at 2500 uM GlcN6P” value: under 1e-05 s⁻¹ for the first, under 1e-05 s⁻¹ for the second.

C34G C71A and C34G G35A U49C cannot be ordered by “self-cleavage kobs at 2500 uM GlcN6P” value: under 1e-05 s⁻¹ for the first, under 1e-05 s⁻¹ for the second.

C34G G43C U54C was tested, and the “self-cleavage kobs at 2500 uM GlcN6P” value was under 1e-05 s⁻¹.

Variants of: B1
Test: self-cleavage kobs at 10000 uM GlcN6P; higher = faster cleavage; RNA array
Settings: with glucosamine-6-phosphate
Summary of the method: as §1

A33C A53G U55G was tested, and the “self-cleavage kobs at 10000 uM GlcN6P” value was 0.000163 ± 2.9e-05 s⁻¹.
